Publication PMC7442955, “Biochemical and functional characterization of a meiosis-specific Pch2/ORC AAA+ assembly” (Life Science Alliance, 2020)
These are yes or no findings as the source states them, for the method shown. Some entries that bind do so weakly or less than the wild type. Sequences can lack the tags named with a protein. Values belong to the binder of their own block, whether it stands above or below them.

Target: T1, Orc1 (yeast two-hybrid fusion) (budding yeast) (UniProt P54784)
T1 sequence: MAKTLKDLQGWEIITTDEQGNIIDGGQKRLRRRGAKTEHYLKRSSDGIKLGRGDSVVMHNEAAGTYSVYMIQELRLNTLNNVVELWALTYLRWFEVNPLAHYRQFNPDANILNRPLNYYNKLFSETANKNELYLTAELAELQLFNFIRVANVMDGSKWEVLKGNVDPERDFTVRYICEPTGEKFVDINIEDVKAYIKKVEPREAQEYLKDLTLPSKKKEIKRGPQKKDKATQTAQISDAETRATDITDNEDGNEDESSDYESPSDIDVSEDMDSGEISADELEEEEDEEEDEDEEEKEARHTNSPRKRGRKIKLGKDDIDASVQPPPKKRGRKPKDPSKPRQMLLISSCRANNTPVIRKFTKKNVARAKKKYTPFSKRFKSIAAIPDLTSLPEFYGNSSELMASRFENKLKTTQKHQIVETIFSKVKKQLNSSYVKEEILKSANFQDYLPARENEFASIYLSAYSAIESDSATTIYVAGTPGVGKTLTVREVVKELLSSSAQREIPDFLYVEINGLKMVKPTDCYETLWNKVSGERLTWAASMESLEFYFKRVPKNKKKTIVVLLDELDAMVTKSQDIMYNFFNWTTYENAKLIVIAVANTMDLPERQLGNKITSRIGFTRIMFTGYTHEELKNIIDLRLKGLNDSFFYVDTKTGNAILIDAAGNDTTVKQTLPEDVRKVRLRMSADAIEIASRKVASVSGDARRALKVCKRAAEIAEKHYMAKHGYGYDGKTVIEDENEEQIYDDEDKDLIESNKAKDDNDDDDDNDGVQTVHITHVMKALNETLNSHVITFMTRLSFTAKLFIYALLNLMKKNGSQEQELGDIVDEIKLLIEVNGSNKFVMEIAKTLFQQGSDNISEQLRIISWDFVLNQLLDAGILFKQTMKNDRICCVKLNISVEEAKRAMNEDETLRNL
Assay: two-hybrid; bait and prey in pGBDU-C1 or pGAD-C1, reporter strain yGV864; spot assay on -Ura-Leu-His plates, 2–4 d

B2: Pch2 2-91 (yeast two-hybrid fusion) (domain or fragment, UniProt P38126 2-91)
chain: SYIVDLQVRGSSLRVIKCMFREDEQISSLHSGSDSKQNSNKKLGEFLNLLKAVVKRKLESFPKDRLKTSIITGQELMREGQGSIEIKDPP
binding: no binding

B3: Pch2 2-60 (yeast two-hybrid fusion) (domain or fragment, UniProt P38126 2-60)
chain: SYIVDLQVRGSSLRVIKCMFREDEQISSLHSGSDSKQNSNKKLGEFLNLLKAVVKRKLE
binding: no binding

Binder: SYIVDLQVRGSSLRVIKCMFREDEQI (domain or fragment, UniProt P38126 2-27) [Pch2 2-27 (yeast two-hybrid fusion)]
binding: no binding

Results, then the binder that gave them:

binding: binds
B1: Pch2 2-144 (yeast two-hybrid fusion) (domain or fragment, UniProt P38126 2-144)
chain: SYIVDLQVRGSSLRVIKCMFREDEQISSLHSGSDSKQNSNKKLGEFLNLLKAVVKRKLESFPKDRLKTSIITGQELMREGQGSIEIKDPPTEAQQHLIRSLAKVLLHQFSSINGKVNTVNEGQDNLFLSLFVKKISIEQQSTS

binding: no binding
B4: Pch2 2-121 (yeast two-hybrid fusion) (domain or fragment, UniProt P38126 2-121)
chain: SYIVDLQVRGSSLRVIKCMFREDEQISSLHSGSDSKQNSNKKLGEFLNLLKAVVKRKLESFPKDRLKTSIITGQELMREGQGSIEIKDPPTEAQQHLIRSLAKVLLHQFSSINGKVNTVN
